Among the data in the RNAGym collection of RNA variant scans (doi:10.7554/elife.90254) are self-cleavage values, retold here.

The source gives no read counts; variants with many changes may rest on few reads.

Sequences and labels used below:
B1: LINE1-mini (parent)
chain: GGCAGAGCUCAACACAGCGUGGCAAAGUGGCUGUGGCUAGACUGCC

This data set covers variants of B1. In words: self-cleavage, relative activity (ratio to wild type); higher = more cleavage; in vitro, sequencing; the parent is a self-cleaving ribozyme.
For A12U G17A C37A A41G, the self-cleavage turned out to be 0.04.

Consider A12U G19C G35A C37A, for which the self-cleavage is 0.

As for C13A A25G G27U, the self-cleavage came out at 0.19.

With A12U G35U U43A, the self-cleavage was 0.16.

Consider C13A C31G G35A, for which the self-cleavage was found to be 0.03.

In the case of C13A C37G U38C, the self-cleavage was found to be 0.09.

As to C13A C23U A26G C42G, the self-cleavage came to 0.

On to C13A A24C C45U, for which the self-cleavage was found to be 0.03.

With A12U C23U U34G, the self-cleavage stood at 0.03.

Take A12U A16G U32A G40A: the self-cleavage was determined as 0.02.

On to A12U A25G U28C G40C, for which the self-cleavage is 0.05.

Consider C13A A25U U32A, for which the self-cleavage worked out at 0.01.

For C13A A16U G33U G35C U43G, the self-cleavage amounted to 0.04.

Consider A12U A25G G36U, for which the self-cleavage was 0.06.

Turning to A12U A16U G17U A41C G44A, the self-cleavage was 0.01.

In the case of C13A A14G G40U, the self-cleavage was determined as 0.01.

Regarding A12U A25U U28C G30A C31U C42U C46G, the self-cleavage was 0.03.

C13A A25U G33A U38G A39G C42G: the self-cleavage was found to be 0.02.

With A12U G29A U43C, the self-cleavage worked out at 0.05.

Consider A12U G17U C37U G40U, for which the self-cleavage came to 0.03.

Consider C13A C15A C31U, for which the self-cleavage amounted to 0.06.

Regarding A12U G21U G40U, the self-cleavage was determined as 0.06.

Consider A12U G17A G33A C45A, for which the self-cleavage turned out to be 0.01.

For the variant C13A A24U C42A, the self-cleavage turned out to be 0.01.

For the variant A12U A25G G29A, the self-cleavage is 0.12.

In the case of A12U U34G C45U, the self-cleavage came to 0.

As to C13A C15G C45A, the self-cleavage turned out to be 0.03.

A12U C23A A24U: the self-cleavage was 0.28.

Regarding A12U A39U G40U, the self-cleavage is 0.13.

As for A12U C13U C23A, the self-cleavage was 0.07.

Regarding A12U C13U G27U A41U, the self-cleavage turned out to be 0.09.

As to A12U C13U G19U G35U C42A, the self-cleavage was 0.03.

As to A12U C31U C37G C42G, the self-cleavage came to 0.02.

Regarding A12U G21C G29C, the self-cleavage worked out at 0.19.

With A12U C23A C42G, the self-cleavage stood at 0.05.

Turning to A12U C18A A41U G44C, the self-cleavage came out at 0.05.

Consider C13A A24C G29C, for which the self-cleavage came out at 0.05.

As to C13A C15G C18A U20A A24U A25G, the self-cleavage is 0.01.

Turning to A12U U28G C45U, the self-cleavage was found to be 0.75.

For A12U U32G G40U, the self-cleavage stood at 0.08.

For the variant A12U G19C G40A, the self-cleavage worked out at 0.03.

In the case of A12U C23A G30C C45G C46G, the self-cleavage was 0.02.

On to A12U G22A C42U, for which the self-cleavage is 0.29.

On to A12U G22C A24C G40A C42U, for which the self-cleavage was 0.01.

As to A12U C15U A26U C45U, the self-cleavage was 0.1.

For C13A C15A C18A, the self-cleavage stood at 0.06.

Regarding C13A C18G A26C G40C, the self-cleavage was found to be 0.01.

In the case of C13A C18G A25C G30C C37A, the self-cleavage turned out to be 0.02.

For the variant A12U G19U A24C A25C G30U C31G C46A, the self-cleavage is 0.01.

Regarding C13A C15A C23A, the self-cleavage worked out at 0.05.

On to A12U G21A A25U, for which the self-cleavage is 0.35.

As for A12U C13A G27U, the self-cleavage worked out at 0.1.

Turning to A12U G40U C42U, the self-cleavage was 0.19.

Regarding A12U C18G G44C, the self-cleavage is 0.04.

Regarding C13A A16G G17U A41C, the self-cleavage was 0.06.

Take C13A A16U U32C: the self-cleavage was 0.06.

With C13A C15U G22C G27U C37U, the self-cleavage turned out to be 0.07.

As for A12U C37A C45A, the self-cleavage amounted to 0.

Turning to C13A C37A C42U, the self-cleavage is 0.05.

As for C13A C15U A24U G44U, the self-cleavage stood at 0.03.

On to A12U G27C G36U A39G, for which the self-cleavage was 0.02.

Turning to A12U C15U G17C U20A C46G, the self-cleavage worked out at 0.02.

With C13A A16U G22A, the self-cleavage is 0.1.

As to C13A C15U A16U G44A C45G, the self-cleavage was found to be 0.2.

Regarding C13A A14U G36A C37G, the self-cleavage came to 0.08.

On to A12U G17C G36C, for which the self-cleavage stood at 0.02.

For the variant C13A A16C G17A G36A A39G, the self-cleavage is 0.03.

In the case of C13A C23A G33U U43A, the self-cleavage was determined as 0.07.

On to C13A C15A C18U G30A, for which the self-cleavage was 0.13.

Turning to A12U U32A C37G, the self-cleavage worked out at 0.

For A12G U28C G35U, the self-cleavage is 0.02.

As to A12U G29A G35C, the self-cleavage was found to be 0.08.

For the variant C13A C18U G22U C23A U28C U38C, the self-cleavage was found to be 0.06.

As to A12U C13G C15G A25U G30C, the self-cleavage is 0.01.

Consider C13A C18U G21C, for which the self-cleavage was 0.05.

With A12U G19A U43G, the self-cleavage was 1.14.

For the variant A12U G19A U20G G27C U34C G44U, the self-cleavage was found to be 0.01.

Consider C13A C15A A39U G44A, for which the self-cleavage was 0.09.

On to A12U A25U G33U U34G, for which the self-cleavage came out at 0.02.

On to A12U G21C U28G, for which the self-cleavage is 0.12.

Regarding A12U U20G G21A C31U, the self-cleavage turned out to be 0.07.

Regarding A12U C13A C18A, the self-cleavage was determined as 0.04.

For the variant C13A C18G U20G G30C, the self-cleavage was 0.01.

With C13A A14G U34G C45A, the self-cleavage is 0.02.

As for C13A C15U G33A G40U, the self-cleavage was determined as 0.1.

C13A A16U C45G C46A: the self-cleavage came to 0.07.

For C13A C18U G30A G33U U43A, the self-cleavage is 0.04.

For the variant A12U C15G A39U, the self-cleavage came to 0.02.

Regarding A12U G21U G44A C46U, the self-cleavage amounted to 0.33.

As for C13A C18G G36C U38A, the self-cleavage was found to be 0.03.

As to A12U C15A U32A, the self-cleavage was 0.05.

Turning to C13A C18U U20G C23A G29U C45U, the self-cleavage amounted to 0.02.

Consider A12U U20C G27U, for which the self-cleavage came to 0.38.

On to C13A A14U G21C G35C A39U, for which the self-cleavage was 0.02.

Consider A12U A39U C46U, for which the self-cleavage worked out at 0.27.

Consider A12U G17A A24C, for which the self-cleavage turned out to be 0.05.

C13A C18G C46G: the self-cleavage amounted to 0.05.

As to A12U A24U C37U, the self-cleavage is 0.

In the case of A12U C18A G21C, the self-cleavage is 0.19.

For C13A A25C U38C, the self-cleavage was determined as 0.17.

Consider A12U A14U G19C, for which the self-cleavage stood at 0.06.

A12U G30C G36U: the self-cleavage was 0.04.

A12U C18A G19C G33C G40C G44U: the self-cleavage amounted to 0.02.

Regarding A12U A26C U38A, the self-cleavage came out at 0.02.

On to A12U C18U A25G A41G, for which the self-cleavage came to 0.05.

In the case of C13A C37A G44C, the self-cleavage was 0.54.

For the variant A12U G29U A41U, the self-cleavage came out at 0.07.

As for A12U G29C G40C C46A, the self-cleavage turned out to be 0.

On to C13A A16C C31A C46A, for which the self-cleavage was 0.08.

As for C13A C15A G17C G22C A24C, the self-cleavage turned out to be 0.11.

For C13A A24C A26C G36C C46A, the self-cleavage is 0.06.

With A12U G33C G36A A41G, the self-cleavage is 0.04.

A12U U34G C45G C46G: the self-cleavage was 0.

Take A12U G27A C37A C42U: the self-cleavage stood at 0.02.

Consider A12U G40U C45U, for which the self-cleavage amounted to 0.34.

Take A12U G36U U38A: the self-cleavage stood at 0.03.

Regarding C13A C31A G40A, the self-cleavage worked out at 0.07.

For the variant C13A C18G C37A G44C, the self-cleavage was found to be 0.04.

Turning to A12U A14C C31G G36A A39U C46A, the self-cleavage turned out to be 0.

Regarding A12U C18A A25C G27A G33A C46A, the self-cleavage is 0.02.

In the case of A12U G19A U28G G30U, the self-cleavage is 0.29.

Take A12U C18A G27A G30U: the self-cleavage was found to be 0.32.

On to A12U C13U C42A G44A, for which the self-cleavage stood at 0.38.

Regarding C13A A16C G29A, the self-cleavage worked out at 0.08.

With C13A C23G A24G, the self-cleavage worked out at 0.02.

A12U C13U G22U G29A U32A C45U: the self-cleavage worked out at 0.03.

Turning to A12U C23A A26C G44U, the self-cleavage stood at 0.02.

On to A12U G27C G29U C37U G40A U43A, for which the self-cleavage is 0.02.

Consider A12U G17A U20A G36C, for which the self-cleavage is 0.01.

For A12U G19U C31U, the self-cleavage turned out to be 0.14.

Turning to A12U A25G U32G U43A, the self-cleavage was 0.09.

In the case of C13A A16U C45A C46G, the self-cleavage amounted to 0.05.

As to A12U A16U G19A C37A A41U, the self-cleavage is 0.06.

Regarding A12U C15A G17C, the self-cleavage amounted to 0.1.

Turning to A12U A24C G27U U38C, the self-cleavage was determined as 0.03.

On to A12G U28G C45U, for which the self-cleavage was determined as 0.12.

A12U U34G G40U: the self-cleavage is 0.04.

Turning to C13A A39C C46G, the self-cleavage was 0.04.

In the case of A12U U20A G21A U32G U43A, the self-cleavage is 0.02.

Consider C13A C18A U32G, for which the self-cleavage was determined as 0.02.

A12U G17A G22A A26G G33A: the self-cleavage turned out to be 0.07.

Regarding C13A C18U U28G, the self-cleavage was 0.03.

For the variant A12U A16U U38G, the self-cleavage was determined as 0.03.

For C13A A24G G27A, the self-cleavage was 0.03.

With C13A A39C C45A, the self-cleavage was 0.02.

Take A12U C18U G21A A26U C31A: the self-cleavage was found to be 0.06.

Regarding C13A C15U A24U U32G, the self-cleavage is 0.89.

As to A12U U20A G21C G29U, the self-cleavage worked out at 0.18.

Regarding C13A C15U A16C G21A, the self-cleavage turned out to be 0.02.

For A12U G19C C31G, the self-cleavage worked out at 0.17.

Consider A12U C15A C45A, for which the self-cleavage is 0.06.

On to A12U A14U G17A, for which the self-cleavage is 0.05.

For A12U G17A G27C C46G, the self-cleavage is 0.05.

As to C13A A25G G40U, the self-cleavage was determined as 0.02.

In the case of A12U G21U G27C U34C, the self-cleavage was determined as 0.05.

With C13A C15G A16U C18A G21A C23G C31A G44A, the self-cleavage is 0.03.

Take A12U C31G U34A: the self-cleavage was determined as 0.01.

Take C13A C23A U28C: the self-cleavage turned out to be 0.05.

In the case of C13A C23U A24G G30A C45A, the self-cleavage was 0.29.

As for A12U G27U G36C, the self-cleavage was found to be 0.05.

For A12U G27U G36A, the self-cleavage is 0.01.

Consider A12U C31U C37U, for which the self-cleavage was 0.01.

As to A12U G22A U28A, the self-cleavage came to 0.26.

With A12U C15U C31U G44A, the self-cleavage came out at 0.06.

For the variant C13A A24U G27C C42U, the self-cleavage worked out at 0.02.

In the case of C13A C15U A41U, the self-cleavage was 0.06.

On to A12U C18A U34A G36U, for which the self-cleavage was found to be 0.03.
